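Tested at 5 concentrations; 48 h exposure; 96-well plates; endpoints linearly interpolated, else capped at highest concentration. GI50 = concentration required for 50% inhibition of growth. TGI: total growth inhibition.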
Test system: NCI-H322M lung
Experiment: NCI tumour cell line growth inhibition, 48 h

Structure (SMILES)	TGI [µM]	GI50 [µM]
Cc1ccc(S[C@@H](C)[C@@](O)(CF)CN(Cc2ccccc2)C(=O)C(F)(F)F)cc1	> 100	–
CCOC(=O)c1csc(NC(=O)CN2CCCC2)n1	> 100	–
N#Cc1cccc(-n2[nH]c(=O)ccc2=O)c1	> 100	–
C=C(C)C(=O)O[C@@H]1C[C@@]2(C)O[C@@H]2C[C@H](O)/C(C)=C/[C@H]2OC(=O)C(=C)[C@@H]21	> 100	–
CCn1cnc2c(=S)nc(N)[nH]c21	> 100	–
N=C(N)c1ccc(OCCCCCCCCCCOc2ccc(C(=N)N)cc2)cc1	2.78	1.42
O=C(Nc1c(O)[nH]c(=S)[nH]c1=O)c1ccccc1	> 100	–
C[C@@H]1CC[C@H]2C(C)(C)[C@H]3C[C@@]12CC[C@@]3(C)O	> 100	–
N#Cc1nc(-c2cnccn2)oc1N	> 100	–
CC1=NN(c2nc(N)nc(COc3ccc(N)cc3)n2)C(C)(C)C1	> 100	–
CC(=O)[O-].CC(=O)[O-].O=C(N/N=C/c1cc(Cl)cc(Cl)c1O)c1ccncc1.[Cu+2]	> 100	–
O=C1/C(=C/c2ccco2)NC(=S)N1CN1CCCCC1	> 100	–
COc1cc2c(cc1OC)C(Cl)C(c1ccc(F)cc1)=C2Cl (stereo not drawn)	33.5	–
C=C1C(=O)O[C@@H]2/C=C(C)/C=C\[C@@H]3O[C@@]3(C)C[C@@H](O)C12 (stereo partly drawn)	> 100	–
CSC(=O)c1sc(SC)[n+](-c2ccccc2)c1O	30.7	–
O=C(O)Cc1ccc([N+](=O)[O-])cc1[N+](=O)[O-]	> 100	–
CO[C@](C(=O)OC[C@H]1[C@@H](COC(C)=O)[C@@H]2O[C@H]1c1cc3c(cc12)OCO3)(c1ccccc1)C(F)(F)F	> 100	–
Cc1ccc(-[n+]2cc([O-])on2)cc1	> 100	–
O=C(NC1CCCCC1)NS(=O)(=O)c1ccc(N2N=C3c4ccccc4CC3C2c2ccc(Cl)cc2)cc1 (stereo not drawn)	20.6	4.26
CON(C)C(=O)C(C)N(Cc1ccccc1)Cc1ccccc1 (stereo not drawn)	> 100	–
CCOC(=O)/C(C#N)=C/c1coc2cc(C)cc(C)c2c1=O	> 100	–
COc1ccc(C2Oc3cc(OC)c(OC)cc3C2CCl)cc1OC (stereo not drawn)	> 100	–

Structure (SMILES)	TGI [µM]	GI50 [µM]
CC(=O)OC1(C)N=NC2(CCCCC2)O1 (stereo not drawn)	> 100	–
CN1C(=O)C(=O)N2c3ccc(Cl)cc3C3(c4ccccc4)N=CC12O3 (stereo not drawn)	25.6	–
COc1c(CC(C)=O)ccc2c1C(=O)c1ccc(C=O)c(OC(C)=O)c1C2=O	54.7	–
[O-][Cl+3]([O-])([O-])[O-].[O]=[Ru]=[O].c1ccc(-c2ccccn2)nc1.c1ccc(-c2ccccn2)nc1	> 100	> 100
Cc1ccc(C(=O)OC(C(=O)O)C(OC(=O)c2ccc(C)cc2)C(=O)O)cc1 (stereo not drawn) (tested in a mixture with another compound)	24	–
CN(C)C=Nc1nc(=O)n(C2CCC(CO)O2)cc1F (stereo not drawn)	> 100	–
Fc1cc(-c2nnc3n2N=C(c2ccc(Cl)cc2)CS3)c(Cl)cc1Cl	33.4	17.5
COc1ccc(NC(=S)c2ccc(CN3CCCCC3)s2)cc1	33.3	–
Cc1[cH-]c(=O)n(-c2ccccc2)n1.[Au+].[Au].c1ccc([PH+](c2ccccc2)c2ccccc2)cc1.c1ccc([PH+](c2ccccc2)c2ccccc2)cc1	> 100	35.2
O=C(O)CSc1n[nH]c(-c2ccccc2O)n1	> 100	–
O=C1SC(SCc2ccccc2)=NC12CC2c1ccccc1 (stereo not drawn)	62	–
O=[N+]([O-])c1ccc2nc(Nc3ccccc3)c(Nc3ccccc3)nc2c1	13.6	–
Cc1cc(OC(=O)Nc2cccc3ccccc23)c(C(C)C)cc1C(=S)Nc1ccccc1	60.7	–
COc1c2ccccc2c(OC)c2[nH]c(=O)ccc12	3.44	1.83
COc1cc(-c2nn(-c3cccc(NC(=O)c4ccccc4)c3)cc2-c2ccncc2)ccc1Cl	> 100	4.45
COCCn1cc(-c2nc(-c3cc4cccnc4[nH]3)cs2)c2cc(OC)ccc21	> 46.2	2.28
CN(C)CC1CCCC/C1=N/O (stereo not drawn)	> 100	–
O=C(NC1C=CCC2C(=O)N(c3ccccc3)C(=O)C12)OCc1ccccc1 (stereo not drawn)	> 100	–
COC(=O)c1cccc(C)c1C1CN=NC12Cc1cc(C)cc(C)c1C2=O (stereo not drawn)	> 100	–
CC(=O)Nc1cc2ccc(=O)oc2cc1Cl	> 100	–
O=C1C(Br)=C(Br)C(=O)c2ccc(=O)ccc21	> 100	–
C=C1C(=O)O[C@H]2[C@H]1CC/C(CNC(=O)c1cc3ccccc3[nH]1)=C\CC[C@@]1(C)O[C@@H]21	24	10.8

Structure (SMILES)	TGI [µM]	GI50 [µM]
CCCOc1nc(N)c2cnn(C3CCCCO3)c2n1 (stereo not drawn)	> 100	–
CN1CCN(C(=O)COc2ccc(C34CC5CC(CC(C5)C3)C4)cc2)CC1	43.5	17.3
CC1=C/C(=N\NC(N)=S)C(C(O)(C(F)(F)F)C(F)(F)F)C(C)(C)C1 (stereo not drawn)	> 10	–
O=C1c2cccc3cc([N+](=O)[O-])cc(c23)C(=O)N1Nc1ccc([N+](=O)[O-])cc1[N+](=O)[O-]	> 100	–
CCOC(=O)c1cn2c(n1)sc1cc(F)ccc12	> 100	–
O=c1c(F)cn(Cc2c(Cl)cccc2Cl)c(=O)n1Cc1c(Cl)cccc1Cl	> 31.6	–
COCCOCOC(CCCCO)c1cc(C)c(O[Si](C)(C)C(C)(C)C)c(C)c1 (stereo not drawn)	27.1	–
CC(N)/C(N)=N/O (stereo not drawn)	> 100	–
CCCCCCCCCCSC(=N)N (tested in a mixture with another compound)	26.1	12.7
Nc1ncc2c(n1)-c1ccccc1OC2N1CCCCC1 (stereo not drawn)	> 100	–
COC1=CC(=O)C(C2(OC(C)C)OC(=O)C(Cl)=C2Cl)=CC1=O (stereo not drawn)	> 100	–
Cc1ccc(S(=O)(=O)N2C3C=CC(C3)[C@@H]2C(Cl)(Cl)Cl)cc1 (stereo partly drawn)	> 100	–
O=c1[nH]c(=O)c2c3n(cc2[nH]1)CCCCC3	> 100	–
C[C@@]1(O)CC[C@]2(C)C3CCCC3[C@H]12 (stereo partly drawn)	> 100	–
O=C1C(C(Nc2ccccc2)c2ccccc2)=C([O-])c2ccccc21.O=C1C(C(Nc2ccccc2)c2ccccc2)=C([O-])c2ccccc21.[Cu+2] (stereo not drawn)	> 100	51.1
O=C(C(=O)n1ccc2ccccc21)n1ccc2ccccc21	> 100	–
COC(=O)CC(C)(NS(=O)c1ccc(C)cc1)c1ccccc1 (stereo not drawn)	> 100	–
CN(C)CC(O)c1ccc(/C=C/c2ccc(Cl)cc2)cc1 (stereo not drawn)	3.16	1.53
C=C1c2nc3ccccc3n2C=C(c2ccc(OC)cc2)N1c1ccc(OC)cc1	> 100	–
C#Cc1cccc(Nc2nc3cc([N+](=O)[O-])ccc3nc2Nc2ccc(O)cc2)c1	4.7	1.66

From PubChem BioAssay (NCI)
